The campaign covered roughly 320,000 compounds. About 200 (0.062%) were called active. Inconclusive results, whose numbers are uncertain, are shown with a selection of clear calls. The call rests on the fitted dose curve; in most records, active means well fitted activation curve with a large enough effect; inconclusive means small, poorly fitted or top-dose-only effect; inactive means no such curve, though single readings can be large or run the other way. No potency is given beside an inconclusive call; the fits are too rough.
Test: qHTS assay for re-activators of p53 using a Luc reporter; further: nearly all actives have a fitted effect of over 45% in size
Details: H1299 p53-A138V BP100-luciferase reporter, luminescence, 24 h; series mostly up to 92.2 µM
Method in brief: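 H1299 (p53-null), stable ts p53-A138V + BP100-Luc; 1000 cells/well, Opti-MEM/10% FBS; cpd 4 pt, 1:5; 24 h, 37 deg C, 5% CO2; detection reagent 10 min RT; luminescence.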
Potency means the concentration at half of the fitted maximal effect; tags describe the fitted curve by direction and shape.

SMILES | Potency
C/C(=N/NC(=O)c1ccc(O)cc1)c1cccc([N+](=O)[O-])c1 | inactive
CC(=O)c1oc2ccccc2c1NC(=O)CN1CCCCC1 | inconclusive [activator, single point]
O=C(Nc1cccc2ccccc12)c1ccccc1 | inconclusive [activator, full curve, poor fit]
CCCc1cnc(NCCNCC(O)COc2ccc(Cl)c(Cl)c2)nc1 (stereo not drawn) | inactive
CN(C)CCCN(C(=O)c1ccc2c(c1)OCCO2)c1nc2ccc(Cl)cc2s1 | inconclusive [activator, single point]
Cc1ccc(-c2csc(NC(=O)c3c(C)noc3C)n2)cc1C | inconclusive [activator, single point]
COc1cc(/C=C/c2nc3ccc([N+](=O)[O-])cc3s2)ccc1OCC(=O)O | inactive
COc1ccc(C(=O)/C=C\N2CCOCC2)cc1 | inactive
Oc1c(CN2CCc3ccccc3C2)cc(Cl)c2cccnc12 | inconclusive [activator, single point]
Clc1ccc(-n2nnc(-c3nccs3)n2)cc1Cl | inactive
Cc1ccc(NC(=O)c2ccc(NC(=O)c3ccccc3)cc2)cc1C | inconclusive [activator, partial curve, poor fit]
O=C(COc1ccc([N+](=O)[O-])cc1)Nc1ccc2c(c1)CCC2 | inconclusive [activator, full curve, poor fit]
O=C1c2cccnc2C(Nc2cccc(F)c2)N1Cc1ccco1 (stereo not drawn) | inconclusive [activator, single point]
O=C(CSc1ccc(-c2cccs2)nn1)c1cccs1 | inactive
O=C(Oc1ccc(OC(=O)N2CCOCC2)cc1)c1ccccc1 | inconclusive [activator, partial curve, poor fit]
O=C(Cn1nnc2ccccc2c1=O)Nc1ccc2c(c1)CCC2 | inconclusive [activator, single point]
COc1ccc(-c2noc(-c3ccccc3C(=O)Nc3cccc(OC)c3)n2)cc1 | inactive
CC(=O)Nc1ccc2nc(NC(=O)c3cccs3)sc2c1 | inconclusive [activator, partial curve, poor fit]
COc1ccc(-c2[nH]n(-c3ccc([N+](=O)[O-])cc3)c(=O)c2C=NCc2ccccc2)cc1 | inactive
O=c1[nH]c(/C=C\c2ccc(O)c(O)c2)nc(O)c1[N+](=O)[O-] | inconclusive [activator, single point]
Cc1ccc(C)c(CN2CCC(CNC(=O)Nc3ccc(F)c(Cl)c3)CC2)c1 | inactive
COc1ccc(-n2nc3cc(C)c(NC(=S)NC(=O)c4ccccc4C)cc3n2)cc1 | inconclusive [activator, full curve, poor fit]
Cc1cccc(N2CCN(C(=O)Cc3ccc(-n4c(=O)[nH]c5ccsc5c4=O)cc3)CC2)c1C | inactive
CC(C)C1C(=O)CC(c2ccccc2)NC1c1ccccc1 (stereo not drawn) | inconclusive [activator, single point]
C=CCNC(=O)C(=O)NCCOc1ccccc1Cl | inactive

SMILES | Potency
CC1(C)CC(=O)C(C2C3=C(CC(C)(C)CC3=O)Oc3ccc4ccccc4c32)C(=O)C1 (stereo not drawn) | inconclusive [activator, partial curve, poor fit]
O=C(/C=C/c1ccccc1Br)c1ccc2c(c1)OCO2 | inconclusive [activator, single point]
O=C(COC(=O)c1c(F)cccc1F)Nc1ccc2c(c1)OCO2 | inconclusive [activator, single point]
COC(=O)c1cc(C)nc2c1c(C)nn2-c1ccccc1 | inconclusive [activator, partial curve, poor fit]
CCN(CC)c1ccc(/C=C2\C(=O)c3ccc(C(=O)O)cc3C2=O)cc1 | inconclusive [activator, partial curve, poor fit]
CCC(C)N(C(=O)COC(=O)c1[nH]c(C)c(C(C)=O)c1C)C1CCS(=O)(=O)C1 (stereo not drawn) | inconclusive [activator, single point]
Cc1c(C(=O)Nc2ccc3c4c(cccc24)CC3)cccc1[N+](=O)[O-] | inconclusive [activator, single point]
Cc1cccc(-n2ncc3c(NCCCO)ncnc32)c1 | inconclusive [activator, partial curve, poor fit]
Fc1ccc(NC(=S)NC2CCCCC2)c(F)c1F | inconclusive [activator, partial curve, poor fit]
Cn1cc(CNC(=O)c2cc(-c3ccc(Br)cc3)nc3ccccc23)cn1 | inactive
Cn1cc(Br)c(-c2cccc(N3C(=O)CCCC3=O)c2)n1 | inactive
Cc1cc(=O)[nH]c(N/N=C/c2cc(C)n(CC(F)(F)F)c2C)n1 | inactive
CCN(CC(=O)Nc1ccc(NC(C)=O)cc1)C(=O)c1cc(S(=O)(=O)N2CCCCCC2)ccc1OC | inactive
COc1ccccc1C(=O)Nc1cccc2c1CCCC2 | inconclusive [activator, single point]
O=[N+]([O-])c1ccc(Oc2ccc(S(=O)(=O)Nc3ccccc3)cc2)cc1 | inactive
CCOC(=O)c1c(C)[nH]c(C)c1C(=O)CSc1nc2ccccc2n1CCOC | inactive
O=C(c1cccc(-c2ccc(O)cc2)c1)N1CCN(c2ccc(F)cc2)CC1 | inactive
CCOC(=O)C1CCN(S(=O)(=O)C(F)(F)c2nc3ccccc3s2)CC1 | inconclusive [activator, single point]
Cc1ccc(C(=O)CNc2ccccc2C)cc1 | inconclusive [activator, partial curve, poor fit]
O=C(CSc1nnc(-c2ccc(F)cc2)c2ccccc12)Nc1ccccc1 | inconclusive [activator, partial curve, poor fit]
Cc1ccc(C)c(N2CCN(CCCNC(=O)Cn3cccc3C(=O)c3ccccc3C)CC2)c1 | inactive
COc1ccc2nc(NC(=O)c3ccoc3C)sc2c1 | inconclusive [activator, full curve, poor fit]
O=[N+]([O-])c1ccc2nc(-c3ccccc3[N+](=O)[O-])[nH]c2c1 | inconclusive [activator, partial curve, poor fit]
COc1ccc(C2=NN(c3nc(-c4ccc(CNC(C)=O)cc4)cs3)C(c3ccco3)C2)cc1 (stereo not drawn) | inactive
COc1ccc(/C=N/NC(=S)NC2CCS(=O)(=O)C2)cc1 (stereo not drawn) | inactive

SMILES | Potency
O=C(Nc1ccc(Cl)cc1C(F)(F)F)c1ccccc1Cl | inconclusive [activator, partial curve]
Cc1ccc(NC(=S)NC(=O)C2CCCCC2)c(Br)c1 | inconclusive [activator, partial curve, poor fit]
Cc1ccccc1OCc1nc(-c2ccc(NC(=O)c3ccco3)cc2)no1 | inconclusive [activator, partial curve, poor fit]
NS(=O)(=O)c1ccc(Cl)cc1[N+](=O)[O-] | inactive
Cc1cnc(-c2nnc(N(C)C(=O)C3CCOC3)s2)cn1 (stereo not drawn) | inconclusive [activator, partial curve, poor fit]
[N-]=[N+]=NC[C@H](Cc1ccccc1)N1CC[C@@H](OCc2ccccc2)CCC1=O | inactive
COc1cc2ccccc2cc1C(=O)Nc1ccc(O)cc1 | inconclusive [activator, full curve, poor fit]
Cc1ccc(C(C2=C(O)CC(C)(C)CC2=O)C2C(=O)CC(C)(C)CC2=O)s1 (stereo not drawn) | inactive
CC(=O)Nc1ccc(NC(=O)CSc2nnc3ccc(-c4ccccn4)nn23)cc1 | inactive
Cc1cccc(NC(=O)c2ccc3ccccc3n2)n1 | inconclusive [activator, full curve, poor fit]
O=C(c1ccc(S(=O)(=O)NCC2CCCO2)cc1)N1CCc2ccccc21 (stereo not drawn) | inactive
Cc1ccccc1NC(=O)n1ncc2cc(Cl)ccc21 | inactive
C/C=C/c1ccc(OCCOc2cc(C=O)ccc2OC)c(OC)c1 | inactive
COCCn1c(C)cc(C2=NNC(=NC3CC3)SC2)c1C | inactive
CC(C)(C)c1ccc(NC(=O)c2ccccc2)c([N+](=O)[O-])c1 | inconclusive [activator, full curve, poor fit]
CC(=O)c1cccc(NS(=O)(=O)c2ccc(N/C=C\C(=O)c3ccc(C)cc3)cc2)c1 | inconclusive [activator, single point]
COC(=O)C1CCCCN1C(=O)c1cccc(OC2CCN(C(=O)C3CC3)CC2)c1 (stereo not drawn) | inactive
Cc1cc(C(=O)CN2C(=O)CCC2=O)c(C)n1Cc1ccccc1 | inactive
O=C(COC(=O)c1ccc(F)cc1F)c1ccc[nH]1 | inactive
C=CCn1cccc(C(=O)Nc2ccc(C)cc2)c1=O | inconclusive [activator, partial curve, poor fit]
COCCCN1C2=C(C(=O)CC(C)(C)C2)C(c2ccc(O)c(OC)c2)C2=C1CC(C)(C)CC2=O | inconclusive [activator, single point]
O=C(Nc1nnc(SCc2ccc(F)cc2)s1)c1ccc2ncsc2c1 | inconclusive [activator, partial curve, poor fit]
S=C(Nc1ccccc1)Nc1ccc(OCc2ccccc2)cc1 | inactive
